# Test results taken from PubChem BioAssay (NCATS).
# The inconclusive results got no clear call from the source; some entries with a clear call stand among them for comparison. For some of these results: No potency is given beside an inconclusive call; the fits are too rough. For some of these results: A note “side channel” means that the fit belongs to a control or component signal, not to the main read-out. Calls of active or inactive are those of the source. Unless noted, calls come from the whole dose curve; as a rule, active = well fitted curve in the direction sought with a large enough effect; inconclusive = small, poorly fitted or top-dose-only effect, or another doubt; inactive = no such curve, though single readings can be large; an effect the other way counts as inactive or inconclusive.
# Tests used:
# [1] = qHTS for differential inhibitors of proliferation of Plasmodium falciparum line GB4 (AID 1816); conditions: Potency: Plasmodium falciparum GB4 proliferation inhibition;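 note: parasite growth measured after 72 h incubation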
# [2] = qHTS for differential inhibitors of proliferation of Plasmodium falciparum line 3D7 (AID 1876)
# [3] = qHTS for differential inhibitors of proliferation of Plasmodium falciparum line D10 (AID 1877);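 note: parasites grown with compound for 72 h before DNA staining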
# [4] = qHTS for differential inhibitors of proliferation of Plasmodium falciparum line Dd2 (AID 1882); conditions: Potency: Plasmodium falciparum Dd2 proliferation inhibition; note: nearly all actives have a fitted effect of over 65% in size
# Method in brief: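 RBC culture, 0.3% parasitemia / 2.5% Hct final; cpd added by pin tool in DMSO; 72 h, 37 C, 5% CO2; lysis buffer + SYBR Green I, o/n RT dark; FI 485/535; norm. to artemisinin 0.29 uM and DMSO.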
# [5] = qHTS for differential inhibitors of proliferation of Plasmodium falciparum line HB3 (AID 1886); conditions: Potency: Plasmodium falciparum HB3 proliferation inhibition;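 note: parasites grown with compound for 72 h before SYBR Green readout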
# [6] = target: RecQ-like DNA helicase BLM (Homo sapiens) (UniProt P54132); test: qHTS Validation Assay for Inhibitors of Bloom's syndrome helicase (BLM) (AID 2364)
# UniProt P54132, sequence (P54132 whole entry, looked up): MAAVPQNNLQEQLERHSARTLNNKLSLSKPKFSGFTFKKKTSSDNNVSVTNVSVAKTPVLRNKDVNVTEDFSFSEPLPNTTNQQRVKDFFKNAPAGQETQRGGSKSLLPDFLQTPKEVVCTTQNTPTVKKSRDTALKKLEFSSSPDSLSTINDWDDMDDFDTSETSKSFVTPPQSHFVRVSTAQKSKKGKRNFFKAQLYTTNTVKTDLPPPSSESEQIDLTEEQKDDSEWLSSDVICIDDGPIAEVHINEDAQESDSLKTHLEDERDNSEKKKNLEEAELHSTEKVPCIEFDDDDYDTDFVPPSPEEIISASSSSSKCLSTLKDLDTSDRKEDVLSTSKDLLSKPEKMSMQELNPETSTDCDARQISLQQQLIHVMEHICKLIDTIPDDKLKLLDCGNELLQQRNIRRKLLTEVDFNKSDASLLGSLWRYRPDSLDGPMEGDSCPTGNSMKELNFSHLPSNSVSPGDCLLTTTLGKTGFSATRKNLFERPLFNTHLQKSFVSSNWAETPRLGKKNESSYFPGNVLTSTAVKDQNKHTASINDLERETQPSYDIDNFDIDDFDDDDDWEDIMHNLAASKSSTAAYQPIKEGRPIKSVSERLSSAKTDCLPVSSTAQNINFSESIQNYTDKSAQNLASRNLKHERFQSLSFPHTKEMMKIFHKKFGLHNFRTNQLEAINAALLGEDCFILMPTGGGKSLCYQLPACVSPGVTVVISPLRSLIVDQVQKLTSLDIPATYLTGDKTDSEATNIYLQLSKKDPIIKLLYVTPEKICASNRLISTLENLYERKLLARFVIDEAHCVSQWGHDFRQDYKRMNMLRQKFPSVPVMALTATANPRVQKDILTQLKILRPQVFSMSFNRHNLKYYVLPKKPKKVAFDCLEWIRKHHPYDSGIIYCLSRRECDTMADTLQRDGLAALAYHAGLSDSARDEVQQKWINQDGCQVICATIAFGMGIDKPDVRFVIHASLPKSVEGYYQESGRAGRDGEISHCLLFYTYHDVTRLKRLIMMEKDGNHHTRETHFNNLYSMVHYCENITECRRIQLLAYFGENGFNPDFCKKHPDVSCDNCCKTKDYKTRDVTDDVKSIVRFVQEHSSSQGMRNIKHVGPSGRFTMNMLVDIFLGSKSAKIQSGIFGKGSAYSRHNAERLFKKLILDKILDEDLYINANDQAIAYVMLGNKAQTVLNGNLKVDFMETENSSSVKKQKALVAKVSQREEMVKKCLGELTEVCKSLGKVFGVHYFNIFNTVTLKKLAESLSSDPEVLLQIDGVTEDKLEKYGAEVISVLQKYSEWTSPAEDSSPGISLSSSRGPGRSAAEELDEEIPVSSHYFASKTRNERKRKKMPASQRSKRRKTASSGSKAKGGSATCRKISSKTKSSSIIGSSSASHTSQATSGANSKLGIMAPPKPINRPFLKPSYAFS
# Method in brief: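 BLM 50 nM in 25 mM Tris-HCl pH 8.0, 5 mM NaCl, 2 mM MgCl2, 1 mM DTT, 0.01% Tween-20, 2.5 ug/ml poly(dI-dC); 15 min cpd preinc, RT. Start: 200 nM forked DNA + 2 mM ATP (final). TAMRA read, 2 reads 2 h apart.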
# [7] = Cytometric Cell-Based qHTS for Inhibitors of the mTORC1 Signaling Pathway in MEF (Tsc2-/-, p53-/-) Cells (AID 2660)
# Method in brief: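 Immunofluorescence qHTS of rpS6 Ser235/236 phosphorylation: MEFs (Tsc2-/-, p53-/-) treated 24 h, 37 C, in DMEM + 10% FBS. Alexa-488 signal normalized to PI count, referenced to rapamycin (7.5 nM) and DMSO; PI cell number recorded for viability.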
# [8] = High Content Imaging Cell-Based qHTS for Inhibitors of the mTORC1 Signaling Pathway in MEF Cells (AID 2667)
# Method in brief: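 Fixed-cell imaging of phospho-S6 (Ser235/236, Alexa-488) after 24 hrs of compound treatment at 37 degree Celsius. Signal was normalized to Hoechst, and thresholds from the highest and lowest wells split cells into % active versus % non-active.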
# [9] = Cytometry Cell-Based qHTS for Inhibitors of the mTORC1 Signaling Pathway in MEF cells (AID 2668)
# Method in brief: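 Read-out: phospho-rpS6 Ser235/236 immunofluorescence normalized to propidium iodide intensity, scored as % active cells against a rapamycin (7.5 nM) threshold. Cells: Tsc2-/-, p53-/- MEFs stably expressing WT Tsc2, compound-treated 24 hrs at 37 degree Celsius.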
# [10] = Validation screen for small molecules that induce DNA re-replication in MCF 10A normal breast cells (AID 463097); note: nearly all actives have a fitted effect of over 60% in size
# Method in brief: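 250 MCF 10A cells/well; compound pin-transferred; 48 hr, 37 C, 5% CO2; Hoechst 40 min; imaged 405/500-530 nm. Hits = more high-intensity nuclei.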
# [11] = target: Chromobox protein homolog 1 (Homo sapiens) (UniProt P83916); test: qHTS Validation Assay for Inhibitors of HP1-beta Chromodomain Interactions with Methylated Histone Tails (AID 488953); note: nearly all actives have a fitted effect of over 50% in size
# UniProt P83916, sequence (P83916 whole entry, looked up): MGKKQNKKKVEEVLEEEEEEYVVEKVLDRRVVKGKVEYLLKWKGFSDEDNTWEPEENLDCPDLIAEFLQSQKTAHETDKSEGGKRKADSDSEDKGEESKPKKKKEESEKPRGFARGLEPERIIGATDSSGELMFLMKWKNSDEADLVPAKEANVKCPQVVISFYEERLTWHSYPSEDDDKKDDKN
# Method in brief: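 AlphaScreen proximity readout: streptavidin donor and Ni-chelate acceptor beads, 10 ug/mL final, 30 min dark, RT. Complex of 50 nM HP1-beta and 50 nM b-H3(1-18)K9me3 formed 30 min, then compound-treated 30 min; PBS pH 7.4/0.01% Tween-20.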
# [12] = target: Phosphoglycerate kinase, glycosomal (Trypanosoma brucei brucei) (UniProt P07378); test: qHTS Validation Assay to Find Inhibitors of Phosphoglycerate Kinase (AID 504547); conditions: enzymatic PGK inhibition, coupled luminescence read-out
# Method in brief: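 In TEA buffer (100mM, pH 7.6) containing 5mM MgCl2 and 0.01% Tween-20, the GAPDH-coupled PGK reaction proceeded for 60 minutes at room temperature before a single luminescence reading using Kinase-Glo Plus.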
# [13] = qHTS for Inhibitors of ATXN expression: Validation of Cytotoxic Assay (AID 588349)
# Method in brief: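 Cytotoxicity counter-screen: HEK293 cells exposed to compound titrations, 72 hr, 37 degrees C. Read-out is intracellular ATP (CellTiter Glo luminescence) as a viability measure.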
# [14] = qHTS for Inhibitors of ATXN expression: Validation (AID 588378); note: nearly all actives have a fitted effect of over 75% in size
# Method in brief: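 Cells: HEK293-ATXN2-FFLuc, phenol-red free DMEM, 2 h attachment. Compound pin-transfer, 24 h, 37 degrees C, 5% CO2. CellTiter-Fluor 30 min, Ex405/Em525; Bright-Glo 5 min, luminescence 2 s exposure.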
# [15] = target: Glucocorticoid receptor (Homo sapiens) (UniProt P04150); test: qHTS assay for small molecule antagonists of glucocorticoid receptor signaling (AID 588533; active = well fitted inhibition curve with a large enough effect in the signal ratio, with a control signal flat, not every such curve was filed as active; inconclusive = small, poorly fitted or top-dose-only effect, or effect the other way, or a change in a side signal; the % refers to the signal ratio;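 note: cells stimulated with 2 nM dexamethasone as agonist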); conditions: HeLa MMTV-bla, GRE beta-lactamase ratio, antagonist mode, 18 h; activity change, negative = inhibition: at 76.8 µM (top of the series)
# UniProt P04150, sequence (P04150 whole entry, looked up): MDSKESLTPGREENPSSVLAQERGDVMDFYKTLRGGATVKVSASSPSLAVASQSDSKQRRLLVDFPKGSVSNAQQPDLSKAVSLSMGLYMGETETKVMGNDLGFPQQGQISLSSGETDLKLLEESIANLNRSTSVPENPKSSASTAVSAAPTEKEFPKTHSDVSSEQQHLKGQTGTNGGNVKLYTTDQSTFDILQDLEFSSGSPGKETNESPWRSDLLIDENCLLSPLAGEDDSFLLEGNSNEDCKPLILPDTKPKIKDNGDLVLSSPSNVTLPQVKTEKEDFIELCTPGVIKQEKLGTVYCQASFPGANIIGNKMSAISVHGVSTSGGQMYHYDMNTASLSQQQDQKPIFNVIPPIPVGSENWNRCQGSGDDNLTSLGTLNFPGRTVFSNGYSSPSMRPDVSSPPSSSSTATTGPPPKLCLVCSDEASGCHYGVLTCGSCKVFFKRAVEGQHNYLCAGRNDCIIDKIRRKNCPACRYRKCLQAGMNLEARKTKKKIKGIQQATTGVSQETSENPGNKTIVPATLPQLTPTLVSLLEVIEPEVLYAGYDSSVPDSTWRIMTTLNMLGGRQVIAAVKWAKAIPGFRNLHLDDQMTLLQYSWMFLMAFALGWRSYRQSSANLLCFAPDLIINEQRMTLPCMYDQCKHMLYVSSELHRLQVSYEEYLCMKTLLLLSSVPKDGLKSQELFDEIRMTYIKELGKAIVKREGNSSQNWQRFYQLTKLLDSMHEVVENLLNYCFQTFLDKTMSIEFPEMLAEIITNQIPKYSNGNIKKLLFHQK
# [16] = target: Peroxisome proliferator-activated receptor gamma (Homo sapiens) (UniProt P37231); test: qHTS assay for small molecule antagonists of peroxisome proliferator-activated receptor gamma signaling (AID 588537; active = well fitted inhibition curve with a large enough effect in the signal ratio, with a control signal flat, not every such curve was filed as active; inconclusive = small, poorly fitted or top-dose-only effect, or effect the other way, or a change in a side signal; the % refers to the signal ratio;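 note: reporter cells co-stimulated with 50 nM rosiglitazone agonist during compound treatment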); conditions: HEK293 PPARg-UAS-bla, beta-lactamase ratio, antagonist mode; series mostly up to 76.8 µM
# Method in brief: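 HEK293 cells, PPAR-gamma-UAS-bla, 3000/well. Pre-incubation 6-6.5 h, 37 C. Compound titration with rosiglitazone 50 nM final, 16 h. CCF4 dye, 2 h RT, dual-emission fluorescence.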
# [17] = qHTS assay for small molecule disruptors of the mitochondrial membrane potential - 1 hr assay (AID 651754; calls by dose curve; note: nearly all actives have a fitted effect of over 35% in size); conditions: ratio change, negative = depolarisation: at 92.2 µM (top of the series)
# Method in brief: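 Read-out: dye fluorescence at 490 nm ex/535 nm em (monomers) and 540 nm ex/590 nm em (aggregates) in HepG2 cells. Compound exposure 1 hr at 37C, followed by 30 min dye loading.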
# [18] = qHTS assay to identify small molecules that stimulate interleukin-8 (IL-8) secretion (AID 651758; active = well fitted activation curve with a large enough effect in the signal ratio; inconclusive = small, poorly fitted or top-dose-only effect, or effect the other way, or a change in a side signal; the % refers to the signal ratio); conditions: HTRF ratio (665/615); series mostly up to 92.2 µM
# Method in brief: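 Quantitative HTS in THP-1 monocytic cells at 2000 cells per well, with 16 hrs compound incubation at 37 C. IL-8 in the medium was then quantified by HTRF immunoassay, read after 1-3 hrs at room temperature.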
# [19] = qHTS assay for small molecule agonists of the antioxidant response element (ARE) signaling pathway measured by Nrf2-dependant transcriptional activity (AID 720636; active = well fitted curve in the direction sought with a large enough effect in the repeat runs; inconclusive = weak or mixed curves; inactive = no such curve, though single readings can be large; an effect the other way counts as inactive or inconclusive)
# Method in brief: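 HepG2 ARE-luc reporter line, 1% dialyzed FBS; 6 hr attachment at 37 C, compound pinned in, 16 hr at 37 C/5% CO2; ONE-Glo, 30 min RT, luminescence read.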
# [20] = qHTS assay for small molecule antagonists of the retinoid-related orphan receptor gamma (ROR-gamma) signaling pathway - cell viability counter screen (AID 720652; active = well fitted curve in the direction sought with a large enough effect in the repeat runs; inconclusive = weak or mixed curves; inactive = no such curve, though single readings can be large; an effect the other way counts as inactive or inconclusive;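 note: compound exposure lasted 16 hr before ATP read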)
# Method in brief: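 CHO RORE-LUC/TET-ROR line, 1,000 cells/well, 37 C 5% CO2 5 hr; cpd or DMSO + doxycycline induction, 16 hr. CellTiter-Glo, 30 min RT, luminescence = ATP content.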
# [21] = qHTS Assay for Identifying Gametocytocidal Compounds (AID 743244); conditions: P. falciparum 3D7 stage III-V gametocytes, alamarBlue, 72 h; max response: active compounds read low
# Method in brief: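 P. falciparum 3D7 stage III–V gametocytes (20,000 cells/well) were exposed to compounds for 72 h at 37 °C, 5% CO2. AlamarBlue was then added for 24 h; decreased resorufin fluorescence (Ex 525/Em 598 nm) indicated loss of viability.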
# [22] = target: Nucleoprotein (Lymphocytic choriomeningitis virus (strain Armstrong)) (UniProt P09992); test: qHTS for Inhibitors of the Functional Ribonucleoprotein Complex (vRNP) of Lymphocytic Choriomeningitis Arenaviruses (LCMV): LCMV Primary Screen - GLuc reporter signal (AID 1347086; calls by dose curve; note: nearly all actives have a fitted effect of over 70% in size); conditions: LCMV minigenome vRNP cell assay, Gaussia luciferase reporter; activity change, negative = inhibition: at 57.5 µM (top of the series) unless noted
# UniProt P09992, sequence (P09992 whole entry, looked up): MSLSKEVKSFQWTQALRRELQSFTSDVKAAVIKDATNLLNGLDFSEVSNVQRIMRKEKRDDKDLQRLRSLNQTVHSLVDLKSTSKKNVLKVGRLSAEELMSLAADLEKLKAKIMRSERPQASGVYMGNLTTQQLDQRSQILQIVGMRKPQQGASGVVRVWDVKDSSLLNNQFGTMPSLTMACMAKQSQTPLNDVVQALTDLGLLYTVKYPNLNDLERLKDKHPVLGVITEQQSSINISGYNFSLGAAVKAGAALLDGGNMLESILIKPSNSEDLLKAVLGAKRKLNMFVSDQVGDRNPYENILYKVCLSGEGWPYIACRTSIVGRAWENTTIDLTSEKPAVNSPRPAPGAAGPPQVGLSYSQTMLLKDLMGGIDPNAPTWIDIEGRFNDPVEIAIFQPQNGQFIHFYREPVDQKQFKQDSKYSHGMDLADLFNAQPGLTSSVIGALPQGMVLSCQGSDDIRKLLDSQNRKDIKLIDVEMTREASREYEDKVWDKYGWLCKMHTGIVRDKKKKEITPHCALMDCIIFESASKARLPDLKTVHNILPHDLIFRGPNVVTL
# Potency is the fitted concentration of half-maximal effect; tags give direction and shape of the fitted curve or compound fluorescence and quenching.
structure (smiles),measurement,setting,value
Oc1ccccc1O,Potency,[1],"inconclusive [inhibitor, partial curve]"
same,Potency,[2],"inconclusive [inhibitor, single point]"
same,Potency,[3],"inconclusive [inhibitor, single point]"
same,Potency,[4],"inconclusive [inhibitor, single point]"
same,Potency,[5],"inconclusive [inhibitor, partial curve]"
same,Potency,[6],"inconclusive [inhibitor, partial curve]"
same,Potency,[7],"inconclusive [falling, single point]"
same,Potency,[8],"inconclusive [falling, full curve, poor fit]"
same,Potency,[9],active: 10.4 µM
same,Potency,[10],"inconclusive [activator, partial curve]"
same,Potency,[11],"inconclusive [inhibitor, partial curve]"
same,Potency,[12],"inconclusive [inhibitor, single point]"
same,Potency,[13],"inconclusive [cytotoxic, single point]"
same,Potency,[14],"inconclusive [inhibitor, single point]"
same,Potency,[15],active: 35.5 µM
same,Potency,[16],"inconclusive [side channel, rising, single point]"
same,Potency,[17],"inconclusive [inhibitor, partial curve]"
same,Potency,[18],"inconclusive [activator, single point]"
same,Potency,[19],"inconclusive [activator, full curve, poor fit]"
same,Potency,[20],"inconclusive [cytotoxic, partial curve, poor fit]"
same,Potency,[21],"inconclusive [inhibitor, full curve]"
same,Potency,[22],"inconclusive [inhibitor, single point]"
